# Experimental data taken from PubChem BioAssay (Tox21).
# Several values for one entry are separate records, joined by “and”; a condition that tells them apart may be missing. Equal entries are not always repeated. The shares of active, inactive and inconclusive entries below differ from those in the screen. For some of these results: Where the call is inconclusive, the potency comes from a doubtful curve fit. Activity calls are given as the source filed them. Unless noted, calls come from the whole dose curve; as a rule, active = well fitted curve in the direction sought with a large enough effect in the repeat runs; inconclusive = weak or mixed curves; inactive = no such curve, though single readings can be large; an effect the other way counts as inactive or inconclusive.
# Columns and labels:
# [1] = qHTS assay to identify small molecule antagonists of the peroxisome proliferator-activated receptor gamma (PPARg) signaling pathway - cell viability counter screen (AID 743194); details: PPARg-bla HEK293H viability, CellTiter-Glo luminescence, 17 h, co-treated with 50 nM rosiglitazone; activity change, negative = cytotoxicity: at 62.6 µM (top of the series) unless noted; note: potency is the fitted concentration of half-maximal effect; nearly all actives have a fitted effect of over 55% in size
# Outline: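 Viability was measured as CellTiter-Glo luminescence in GeneBLAzer PPARg UAS-bla HEK293H cells. These cells had been exposed 17 h at 37 C to compounds together with rosiglitazone at 50 nM final, with the beta-lactamase readout taken in the same wells.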
# [2] = qHTS assay for small molecule agonists of the antioxidant response element (ARE) signaling pathway (AID 743202; active = well fitted activation curve with a large enough effect in the signal ratio in the repeat runs, not every such curve was filed as active; inconclusive = weak or mixed curves, or effect the other way; inactive = no such curve, though single readings can be large or run the other way; the % refers to the signal ratio; note: potency is the fitted concentration of half-maximal effect); details: HepG2 ARE-bla reporter, beta-lactamase FRET, 16 h
# Outline: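 An ARE-responsive beta-lactamase gene stably integrated in HepG2 cells serves as reporter. After 5 h plating and 16 h compound incubation at 37 C, fluorescence of the B/G FRET substrate was measured.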
# [3] = qHTS assay for small molecule agonists of the antioxidant response element (ARE) signaling pathway - cell viability counter screen (AID 743203; calls by dose curve; note: potency is the fitted concentration of half-maximal effect; nearly all actives have a fitted effect of over 55% in size); details: ARE-bla HepG2 viability, CellTiter-Glo luminescence, 16 h; viability change, negative = cytotoxic: at 73.3 µM (top of the series)
# Outline: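 CellSensor ARE-bla HepG2 cells, 2,000 per well, rested 5 hrs at 37C/5% CO2, then exposed to compound in DMSO for 16 hrs; viability read as CellTiter-Glo luminescence after 30 min at room temperature, in the reporter wells.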
# [4] = qHTS assay for small molecule activators of the heat shock response signaling pathway - cell viability counter screen (AID 743209); details: HSE-bla HeLa viability, CellTiter-Glo luminescence, 5 h; activity change, negative = cytotoxicity: at 62.6 µM (top of the series) unless noted; note: potency is the fitted concentration of half-maximal effect; nearly all actives have a fitted effect of over 50% in size
# Outline: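 CellSensor HSE-bla HeLa cells, plated overnight at 37 C/5% CO2, were exposed to compounds in DMSO for 5 h at 37 C. Viability was then read in the same wells by CellTiter-Glo luminescence after 30 min at room temperature.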
# [5] = qHTS assay to identify small molecule antagonists of the peroxisome proliferator-activated receptor delta (PPARd) signaling pathway - cell viability counter screen (AID 743213); details: PPARd-bla HEK293H viability, CellTiter-Glo luminescence, 17 h; viability change, negative = cytotoxic: at 62 µM (top of the series) unless noted; note: nearly all actives have a fitted effect of over 50% in size; note: potency is the fitted concentration of half-maximal effect
# Outline: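 HEK293H cells with the PPARd UAS-bla reporter, co-treated 17 h at 37 C with compounds and L165041 (300 nM final), were lysed with CellTiter-Glo. Luminescence indicated viable cell content.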
# [6] = biological target: Bile acid receptor (Homo sapiens) (UniProt Q96RI1); experiment: qHTS assay to identify small molecule antagonists of the farnesoid-X-receptor (FXR) signaling pathway (AID 743217; active = well fitted inhibition curve with a large enough effect in the signal ratio in the repeat runs, not every such curve was filed as active; inconclusive = weak or mixed curves, or effect the other way; inactive = no such curve, though single readings can be large or run the other way; the % refers to the signal ratio; note: potency is the fitted concentration of half-maximal effect); details: HEK293T FXR-UAS-bla, beta-lactamase ratio, CDCA-stimulated, 16 h; activity change, negative = inhibition: at 62.6 µM (top of the series) unless noted
# UniProt Q96RI1, sequence (Q96RI1 whole entry, looked up): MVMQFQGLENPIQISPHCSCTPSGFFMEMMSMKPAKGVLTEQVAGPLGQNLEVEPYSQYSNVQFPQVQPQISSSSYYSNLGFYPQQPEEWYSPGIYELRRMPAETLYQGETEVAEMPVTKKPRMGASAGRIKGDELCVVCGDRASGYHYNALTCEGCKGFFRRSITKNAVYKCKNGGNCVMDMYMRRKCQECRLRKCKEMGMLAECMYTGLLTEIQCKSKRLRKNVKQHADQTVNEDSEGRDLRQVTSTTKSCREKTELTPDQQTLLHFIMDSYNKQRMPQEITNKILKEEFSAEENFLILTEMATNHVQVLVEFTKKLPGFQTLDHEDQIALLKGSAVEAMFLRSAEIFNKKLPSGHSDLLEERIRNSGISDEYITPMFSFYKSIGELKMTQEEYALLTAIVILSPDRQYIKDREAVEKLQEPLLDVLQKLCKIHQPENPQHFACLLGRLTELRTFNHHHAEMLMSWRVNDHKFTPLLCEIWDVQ
# Outline: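 FXR-UAS-bla HEK 293T cells pre-incubated 5 h at 37 °C, then exposed to compounds with chenodeoxycholic acid (50 uM final) for 16 h at 37 °C. Beta-lactamase reporter read by LiveBLAzer B/G FRET substrate fluorescence after 2 h at room temperature.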
# [7] = qHTS assay to identify small molecule agonists of the farnesoid-X-receptor (FXR) signaling pathway - cell viability counter screen (AID 743218); details: FXR-bla HEK293T viability, CellTiter-Glo luminescence, 16 h; viability change, negative = cytotoxic: at 62.6 µM (top of the series) unless noted; note: nearly all actives have a fitted effect of over 45% in size; note: potency is the fitted concentration of half-maximal effect; for viability change, negative = cytotoxic: % is set by controls: 0 for no effect and ±100 for the full control effect
# Outline: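 FXR-UAS-bla HEK 293T cells, plated 5 h at 37 C, were exposed to compounds for 16 h at 37 C. CellTiter-Glo was then added to the same wells as the bla readout; luminescence read after 30 min at room temperature.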
# [8] = biological target: Bile acid receptor (Homo sapiens) (UniProt Q96RI1); experiment: qHTS assay to identify small molecule agonists of the farnesoid-X-receptor (FXR) signaling pathway (AID 743220; active = well fitted activation curve with a large enough effect in the signal ratio in the repeat runs, not every such curve was filed as active; inconclusive = weak or mixed curves, or effect the other way; the % refers to the signal ratio; note: potency is the fitted concentration of half-maximal effect); details: HEK293T FXR-UAS-bla, beta-lactamase FRET ratio, 16 h; activation: at 62.6 µM (top of the series) unless noted
# Outline: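 Beta-lactamase reporter under UAS control in GeneBLAzer FXR HEK 293T cells (5000/well) measured with LiveBLAzer FRET substrate after 2 h at room temperature. Compound exposure lasted 16 h at 37C.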
# [9] = biological target: Vitamin D3 receptor (Homo sapiens) (UniProt P11473); experiment: qHTS assay to identify small molecule agonists of the vitamin D receptor (VDR) signaling pathway (AID 743222; calls by dose curve; note: potency is the fitted concentration of half-maximal effect); details: HEK293T VDR-UAS-bla, beta-lactamase FRET ratio, 16 h; activation: at 63.5 µM (top of the series) unless noted
# UniProt P11473, sequence (P11473 whole entry, looked up): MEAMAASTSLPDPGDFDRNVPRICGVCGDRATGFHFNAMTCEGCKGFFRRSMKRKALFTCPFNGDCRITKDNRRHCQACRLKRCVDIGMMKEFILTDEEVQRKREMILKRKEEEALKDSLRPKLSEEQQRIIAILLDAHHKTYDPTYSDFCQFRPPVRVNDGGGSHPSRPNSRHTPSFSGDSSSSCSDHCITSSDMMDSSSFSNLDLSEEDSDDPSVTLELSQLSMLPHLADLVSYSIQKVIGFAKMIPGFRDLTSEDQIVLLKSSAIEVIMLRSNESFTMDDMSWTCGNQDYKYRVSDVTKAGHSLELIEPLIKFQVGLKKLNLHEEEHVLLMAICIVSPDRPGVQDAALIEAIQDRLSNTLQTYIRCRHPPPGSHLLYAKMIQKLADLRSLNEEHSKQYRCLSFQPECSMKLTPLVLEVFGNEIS
# Outline: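 VDR-bla cells were plated 4 h at 37C/5% CO2, then exposed to compounds in DMSO for 16 h. After LiveBLAzer B/G FRET substrate addition and 2 h at room temperature, beta-lactamase reporter fluorescence was read.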
# [10] = biological target: Vitamin D3 receptor (Homo sapiens) (UniProt P11473); experiment: qHTS assay to identify small molecule antagonists of the vitamin D receptor (VDR) signaling pathway (AID 743223; active = well fitted inhibition curve with a large enough effect in the signal ratio in the repeat runs, not every such curve was filed as active; inconclusive = weak or mixed curves, or effect the other way; inactive = no such curve, though single readings can be large or run the other way; the % refers to the signal ratio; note: potency is the fitted concentration of half-maximal effect; for activity change, negative = inhibition: % is set by controls: 0 for no effect and ±100 for the full control effect); details: VDR-UAS-bla HEK293T, beta-lactamase FRET ratio, 16 h; activity change, negative = inhibition: at 61 µM (top of the series) unless noted
# Outline: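 Antagonist mode: compound added to VDR-bla cells alongside agonist 1alpha,25-dihydroxyvitamin D3 (3 nM final), incubation 16 h at 37C. Read-out is LiveBLAzer FRET fluorescence, 2 h at room temperature.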
# [11] = qHTS assay to identify small molecule antagonists of the vitamin D receptor (VDR) signaling pathway - cell viability counter screen (AID 743225); details: VDR-bla HEK293T viability, CellTiter-Glo luminescence, 16 h; viability change, negative = cytotoxic: at 61 µM (top of the series) unless noted; note: potency is the fitted concentration of half-maximal effect; nearly all actives have a fitted effect of over 50% in size
# Outline: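 Cytotoxicity counter screen read by CellTiter-Glo luminescence (30 min, room temperature) in the same wells as the VDR-bla antagonist readout. HEK 293T VDR-UAS-bla cells had 16 h at 37C with compound and 3 nM (final) 1-alpha,25-dihydroxyvitamin D3, then 2 h with FRET substrate.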
# [12] = biological target: Peroxisome proliferator-activated receptor gamma (Homo sapiens) (UniProt P37231); experiment: qHTS assay to identify small molecule antagonists of the peroxisome proliferator-activated receptor gamma (PPARg) signaling pathway (AID 743191; calls by dose curve; note: % is set by controls: 0 for no effect and ±100 for the full control effect; nearly all actives have a fitted effect of over 30% in size); details: HEK293H PPARg-UAS-bla, beta-lactamase ratio, antagonist, 17 h; ratio activity, negative = inhibition: at 62.6 µM (top of the series) unless noted
# UniProt P37231, sequence (P37231 whole entry, looked up): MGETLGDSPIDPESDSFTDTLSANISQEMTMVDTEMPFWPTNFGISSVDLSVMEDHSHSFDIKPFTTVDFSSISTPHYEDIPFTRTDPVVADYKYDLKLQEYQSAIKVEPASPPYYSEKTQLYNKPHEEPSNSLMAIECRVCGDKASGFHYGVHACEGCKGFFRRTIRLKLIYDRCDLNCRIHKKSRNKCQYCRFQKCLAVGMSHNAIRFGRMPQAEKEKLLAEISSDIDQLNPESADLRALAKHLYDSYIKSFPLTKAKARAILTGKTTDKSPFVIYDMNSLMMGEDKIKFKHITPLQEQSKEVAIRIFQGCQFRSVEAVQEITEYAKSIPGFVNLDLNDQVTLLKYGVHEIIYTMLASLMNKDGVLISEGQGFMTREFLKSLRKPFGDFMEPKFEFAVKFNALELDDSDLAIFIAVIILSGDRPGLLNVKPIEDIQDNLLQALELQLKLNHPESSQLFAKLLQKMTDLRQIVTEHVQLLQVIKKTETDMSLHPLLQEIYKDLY
# Outline: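 Beta-lactamase reporter under UAS control in HEK293H PPARg-bla cells; compound treatment 17 h at 37C. Read-out: fluorescence intensity after 1 h room-temperature incubation with LiveBLAzer B/G FRET substrate.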
# [13] = qHTS assay for small molecule activators of the heat shock response signaling pathway (AID 743210; active = well fitted activation curve with a large enough effect in the signal ratio in the repeat runs, with a control signal flat, not every such curve was filed as active; inconclusive = weak or mixed curves; the % refers to the signal ratio; note: potency is the fitted concentration of half-maximal effect;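 for activation: HeLa cells with beta-lactamase reporter driven by heat shock elements; % is set by controls: 0 for no effect and ±100 for the full control effect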); details: HeLa HSE-bla reporter, beta-lactamase ratio, 5 h; activation: at 62.6 µM (top of the series)
# Outline: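 In HSE-bla HeLa cells, 5 h compound incubation (37 C) precedes addition of LiveBLAzer B/G substrate; after 2.5 h at room temperature, fluorescence intensity indicates reporter induction.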
# [14] = biological target: Peroxisome proliferator-activated receptor delta (Homo sapiens) (UniProt Q03181); experiment: qHTS assay to identify small molecule antagonists of the peroxisome proliferator-activated receptor delta (PPARd) signaling pathway (AID 743215; active = well fitted inhibition curve with a large enough effect in the signal ratio in the repeat runs, not every such curve was filed as active; inconclusive = weak or mixed curves, or effect the other way; inactive = no such curve, though single readings can be large or run the other way; the % refers to the signal ratio;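 note: cells stimulated with agonist L165041 at 300 nM final during compound exposure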; note: potency is the fitted concentration of half-maximal effect; for ratio activity, negative = inhibition: % is set by controls: 0 for no effect and ±100 for the full control effect); details: HEK293H PPARd-UAS-bla, beta-lactamase FRET ratio, antagonist, 17 h
# UniProt Q03181, sequence (Q03181 whole entry, looked up): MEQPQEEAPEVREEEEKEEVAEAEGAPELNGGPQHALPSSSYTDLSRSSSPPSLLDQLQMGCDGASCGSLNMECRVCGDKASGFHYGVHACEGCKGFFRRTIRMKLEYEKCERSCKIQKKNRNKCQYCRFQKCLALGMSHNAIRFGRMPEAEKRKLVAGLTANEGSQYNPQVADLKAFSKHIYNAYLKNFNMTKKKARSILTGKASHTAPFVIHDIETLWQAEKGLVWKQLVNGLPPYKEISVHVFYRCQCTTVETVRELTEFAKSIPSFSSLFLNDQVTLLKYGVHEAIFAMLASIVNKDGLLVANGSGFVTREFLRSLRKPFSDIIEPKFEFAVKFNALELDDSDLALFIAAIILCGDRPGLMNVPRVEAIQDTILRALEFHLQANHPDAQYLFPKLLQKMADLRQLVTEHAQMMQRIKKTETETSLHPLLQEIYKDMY
# Outline: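 PPARd UAS-bla HEK293H cells were pre-incubated 5 h at 37 C, then given test compounds in DMSO plus agonist L165041 (300 nM final). After 17 h at 37 C, beta-lactamase FRET substrate was added; fluorescence read after 2 h at room temperature.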
# [15] = qHTS assay to identify small molecule agonists of the peroxisome proliferator-activated receptor delta (PPARd) signaling pathway - cell viability counter screen (AID 743211); details: PPARd-bla HEK293H viability, CellTiter-Glo luminescence, 17 h; activity change, negative = cytotoxicity: at 62.6 µM (top of the series); note: potency is the fitted concentration of half-maximal effect; nearly all actives have a fitted effect of over 55% in size
# Outline: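 Viability was measured as CellTiter-Glo luminescence (30 min, room temperature) in the same wells as the beta-lactamase readout. GeneBLAzer PPARd UAS-bla HEK293H cells received compound after 5 h plating and were incubated 17 h at 37 C.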
# [16] = biological target: Peroxisome proliferator-activated receptor delta (Homo sapiens) (UniProt Q03181); experiment: qHTS assay to identify small molecule agonists of the peroxisome proliferator-activated receptor delta (PPARd) signaling pathway (AID 743212; calls by dose curve; note: potency is the fitted concentration of half-maximal effect); details: HEK293H PPARd-UAS-bla, beta-lactamase FRET ratio, 17 h; activation: at 62.6 µM (top of the series) unless noted
# Outline: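 HEK293H UAS-bla reporter cells, human PPARd system; compounds delivered in DMSO after 5 h plating, then at 37 C. Beta-lactamase FRET read, 2 h RT substrate step.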
# [17] = activation: at 73.3 µM (top of the series) unless noted
# [18] = ratio activity, negative = inhibition: at 62 µM (top of the series) unless noted
# Tags give direction and shape of the fitted curve or compound fluorescence and quenching.
compound,measurement,setting,value
O=C1NCN(c2ccccc2)C12CCN(CCCC(c1ccc(F)cc1)c1ccc(F)cc1)CC2,Potency,[1],active: 26.6 µM
same,Potency,[2]; [17],"inconclusive: 33.5 µM [falling, single point]"
same,Potency,[3],active: 29.8 µM
same,Potency,[4],"inconclusive: 33.5 µM [cytotoxic, single point]"
same,Potency,[5],active: 21.1 µM
same,Potency,[6],inconclusive: 33.5 µM [single point]
same,Potency,[7],active: 26.6 µM
same,Potency,[8],"inconclusive: 33.5 µM [rising, single point]"
same,Potency,[9],inconclusive: 33.5 µM [single point]
same,Potency,[10],inconclusive: 26.8 µM
same,Potency,[11],"inconclusive: 26.8 µM [cytotoxic, single point]"
CCCNC(=O)NS(=O)(=O)c1ccc(Cl)cc1,"ratio activity, negative = inhibition",[12],inconclusive: -20.8% and inconclusive: 17.7%
same,Potency,[13],inactive
same,"ratio activity, negative = inhibition",[14]; at 62 µM (top of the series),inactive: 14.4% and inactive: -3.97%
same,"ratio activity, negative = inhibition",[14]; [18],inconclusive: -9.72%
same,"activity change, negative = inhibition",[10],inconclusive: 16.4%
CC(=O)OCCOC(C)=O,"ratio activity, negative = inhibition",[12],inconclusive: -1.75%
same,Potency,[7],inactive
same,Potency,[10],inactive
O=C1OC(=O)c2cc(-c3ccc4c(c3)C(=O)OC4=O)ccc21,Potency,[2]; [17],"inconclusive: 61.1 µM [rising, single point]"
same,Potency,[4],"inconclusive: 21.9 µM [cytotoxic, full curve]"
same,Potency,[13],inconclusive: 30.9 µM
same,Potency,[15],"inconclusive: 54.9 µM [cytotoxic, single point]"
same,Potency,[16],"inconclusive: 49 µM [rising, single point]"
same,Potency,[5],active: 54.9 µM
same,Potency,[14]; [18],inconclusive: 49 µM
same,Potency,[6],"inconclusive: 49 µM [rising, partial curve, poor fit]"
same,Potency,[7],"inconclusive: 0.174 µM [rising, single point]"
same,activation,[8],inconclusive: 2.09%
Cc1cc(Cc2ccc(N)c(C)c2)ccc1N,activation,[2]; [17],inconclusive: 13.9%
same,activation,[2]; at 73.3 µM (top of the series),inactive: -3.2%
same,Potency,[13],inactive
same,Potency,[5],"inconclusive: 6.17 µM [cytotoxic, full curve, poor fit] and inactive"
same,Potency,[7],"inconclusive: 4.37 µM [rising, partial curve, poor fit]"
